In all, about 33,000 sequences were measured (“E-score (-0.5 to 0.5)”: median about -0.016, highest 2% from about 0.32 on). Some of the results follow.
What follows are sequences tested against T1, Stp1 (UniProt B3LFK1) (assay: PBM E-score (8-mer binding enrichment) (E-score (-0.5 to 0.5)); higher = stronger / more preferred TF binding; most listed sequences are background and not binding sites). Conditions: protein concentration: 200 nM; construct: GST-full length.
T1 sequence: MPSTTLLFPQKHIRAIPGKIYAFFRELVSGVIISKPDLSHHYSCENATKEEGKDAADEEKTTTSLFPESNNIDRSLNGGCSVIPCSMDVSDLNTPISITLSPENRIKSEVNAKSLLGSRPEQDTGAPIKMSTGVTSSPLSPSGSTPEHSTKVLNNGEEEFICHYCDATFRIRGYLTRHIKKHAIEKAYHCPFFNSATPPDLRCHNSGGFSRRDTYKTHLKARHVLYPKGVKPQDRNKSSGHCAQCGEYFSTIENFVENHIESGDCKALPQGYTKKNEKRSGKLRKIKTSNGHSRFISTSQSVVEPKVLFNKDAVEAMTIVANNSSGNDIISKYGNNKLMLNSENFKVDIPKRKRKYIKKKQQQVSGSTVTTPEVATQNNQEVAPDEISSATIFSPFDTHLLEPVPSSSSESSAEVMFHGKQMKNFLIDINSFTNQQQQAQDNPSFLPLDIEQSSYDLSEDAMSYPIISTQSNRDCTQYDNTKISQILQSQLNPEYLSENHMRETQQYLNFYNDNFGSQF
Outline: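 Masliner-normalised scans of fluorescent anti-GST signal were the basis for scoring. That signal came from GST-tagged yeast transcription factors applied at about 100-200 nM to double-stranded universal all-10-mer Agilent arrays on fresh or once-stripped slides. Each ungapped eight-base word, pooled with its reverse complement, received an E-score from the Universal PBM Analysis Suite.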

Sequence | PBM E-score
GCGTACCC | -0.144
AGGAGACA | -0.143
CTGGGTTC | -0.0642
GTAAGAGA | -0.0111
ACCTTTAT | -0.202
CGGTCAAG | -0.0974
AAGTAGCG | -0.0826
ACGCATCA | -0.0474
CAGTTGAA | -0.0323
ACTGTAAC | -0.026
AGATAGAG | -0.0214
CAAGTTCC | -0.109
GGCCCCGA | -0.159
GAACCAGA | -0.184
ACGTGGTG | -0.13
AGAATTCG | -0.0131
TGTTTGAA | 0.132
GGGGGTCA | -0.369
CGGGTGCC | 0.161
CTTGACCA | -0.0647
CGCGTTGC | 0.173
AGTTTTAC | 0.0396
ATGGCACC | 0.118
GTTCCGTA | 0.0809
ACTAGAAG | 0.00154

Sequence | PBM E-score
AGGATGCG | -0.0194
AGGAAGTA | -0.0959
CTCCCCGC | 0.101
AAAAAGAT | 0.052
CCTAACGA | -0.0115
AACATGCG | 0.113
CGGCTAAA | 0.252
GACGCGTC | -0.119
AAAAGGGA | -0.114
AAACACTA | 0.092
GTATACCA | 0.0622
ACAAAGTA | 0.0943
AGTACATC | -0.105
AACACACC | 0.062
ATATTGCC | 0.221
CGACAGTA | -0.0982
AGGCGCCC | 0.232
ACCTCTAG | -0.162
AAAGTAAC | 0.11
GGCGCAAC | 0.268
AGTGAATA | 0.101
AGTAATAC | -0.0623
CGGCTGGA | 0.145
ACGCCCAA | -0.0651
CAAGCTCC | -0.275

Sequence | PBM E-score
AACTGTGC | -0.00183
CCCACGGG | -0.166
AAGTGAGT | -0.17
CGGTAAGA | 0.0116
ACCAGTGC | -0.172
GTGCACTA | 0.0907
CACTAGTC | -0.25
GCTGTCAA | 0.0202
AAGGAAGG | -0.0458
TCAGAACA | -0.0275
ATCACCGA | 0.0107
ATAGACCA | -0.156
TCCCCAGA | -0.381
GCGAGTAA | 0.174
TAAGTATA | 0.174
GGCACCAC | 0.324
AATTCCCT | -0.0839
CATTGCGC | 0.0607
ATCGAGCG | 0.183
ACCCTGGA | -0.419
AGGGCAGA | -0.239
TCTACCAA | -0.0725
CGAACCAG | 0.0261
GGTTGTTA | 0.0915
AATGCAAT | -0.0534

Sequence | PBM E-score
CCCTGTCA | -0.12
GGGAACGA | -0.117
AGTCTTCG | -0.0547
CCAGTCGA | -0.0258
AATCGGAT | 0.111
ACGGTTGA | -0.11
AGTACCCG | -0.00067
CAAAGGTC | -0.257
AAAATTCA | 0.238
GATCTACA | 0.0609
ACAGACCT | -0.0316
GGGTTGGA | -0.0925
CATCAAAC | 0.15
CAGTGGGA | -0.227
GACTGGAA | -0.0872
AACTCTCA | -0.0474
CTCCTGGC | -0.049
AGTAAGAT | 0.136
AAATAGTG | 0.0769
CCCACAAA | 0.158
CGGAGAAG | -0.147
CTTACGGA | -0.295
CCTGATAC | 0.128
GAGCGGCC | 0.156
ACAAGCGA | -0.189

Sequence | PBM E-score
AAAATAGT | -0.00722
AGCCCAAG | -0.0659
ATCTCGTC | -0.0103
CCACTGCG | 0.0474
CAGTGTTC | 0.0466
AAATCTGT | 0.0379
ATGTTCGC | -0.142
AAAGCGGT | -0.0888
AGGTCCAC | -0.179
ACTTAACG | 0.00243
CACGCTGC | -0.121
GATCTCTA | -0.0861
CCTTCGAC | -0.184
CAAGAGGC | 0.231
ACACCTAG | -0.139
CGGCACGA | 0.459
CTGCTCTA | -0.037
ATAGATGG | -0.0898
GCGTGCTA | -0.176
CATGTTCC | -0.0941
CACCTATG | -0.108
ACCTGTCA | -0.0576
AAATCTAC | 0.0829
GCTGCCTA | -0.0568
ACGGGTGC | 0.105

Sequence | PBM E-score
GCTTGTGA | -0.068
CCAGTCTA | -0.186
CGGTAGTA | -0.00143
CAATTATA | -0.0185
CGCCTTTA | 0.129
AACAGTCT | -0.242
AATTTTCT | 0.0398
GATCTAAC | -0.104
CGTCAGCA | -0.0954
AGTACTCC | -0.234
ACACGGGC | 0.0838
AATATATG | 0.158
CGCCGAGA | -0.0302
AAAGGGCG | 0.248
TACGCCAA | -0.104
CCCGCCAC | -0.0792
CTTCGTCA | 0.107
CGATACAC | 0.00016
ACACTGAC | -0.168
AACAAAGT | 0.177
CCCGATTC | 0.0613
ATAAATCC | 0.0719
ATTTGAAC | 0.107
CCCCGGTC | -0.309
CGCTCTGA | -0.095

Sequence | PBM E-score
ACGAAGAC | -0.104
GATCCATC | -0.109
CATTGGGA | -0.258
AATCAATA | 0.293
ACCGTTCG | 0.0794
CGTGGCTA | 0.0439
CATCAGCA | -0.0551
ATCATTAA | 0.145
ACAGCGAA | 0.0628
TGAGAGCA | -0.112
TGCCCCCA | -0.202
CCAGTTGC | 0.00923
AACGAACC | 0.117
TACAGTCA | 0.0313
CCCCTCCG | -0.288
AAGTGTTG | 0.0173
AACCAATA | 0.0694
GTACGAAC | 0.282
GCAGAACA | -0.00078
AGGTCTCG | -0.226
GTTTCGAA | 0.238
AGCCCCCA | -0.365
